Results reported in paper PMC4336329 (PLoS ONE, 2015).
In all, about 310,000 compounds went through this assay and about 2,200 (0.71%) showed an effect of 50% or more. The effect is printed as a negative number. Some of the results follow.

The compounds below were run against human ether-à-go-go-related gene (hERG) potassium channel (human, UniProt Q12809) (assay: primary screen, population patch clamp on CHO cells stably expressing hERG).
Chain of human ether-à-go-go-related gene (hERG) potassium channel (Q12809 whole entry, looked up): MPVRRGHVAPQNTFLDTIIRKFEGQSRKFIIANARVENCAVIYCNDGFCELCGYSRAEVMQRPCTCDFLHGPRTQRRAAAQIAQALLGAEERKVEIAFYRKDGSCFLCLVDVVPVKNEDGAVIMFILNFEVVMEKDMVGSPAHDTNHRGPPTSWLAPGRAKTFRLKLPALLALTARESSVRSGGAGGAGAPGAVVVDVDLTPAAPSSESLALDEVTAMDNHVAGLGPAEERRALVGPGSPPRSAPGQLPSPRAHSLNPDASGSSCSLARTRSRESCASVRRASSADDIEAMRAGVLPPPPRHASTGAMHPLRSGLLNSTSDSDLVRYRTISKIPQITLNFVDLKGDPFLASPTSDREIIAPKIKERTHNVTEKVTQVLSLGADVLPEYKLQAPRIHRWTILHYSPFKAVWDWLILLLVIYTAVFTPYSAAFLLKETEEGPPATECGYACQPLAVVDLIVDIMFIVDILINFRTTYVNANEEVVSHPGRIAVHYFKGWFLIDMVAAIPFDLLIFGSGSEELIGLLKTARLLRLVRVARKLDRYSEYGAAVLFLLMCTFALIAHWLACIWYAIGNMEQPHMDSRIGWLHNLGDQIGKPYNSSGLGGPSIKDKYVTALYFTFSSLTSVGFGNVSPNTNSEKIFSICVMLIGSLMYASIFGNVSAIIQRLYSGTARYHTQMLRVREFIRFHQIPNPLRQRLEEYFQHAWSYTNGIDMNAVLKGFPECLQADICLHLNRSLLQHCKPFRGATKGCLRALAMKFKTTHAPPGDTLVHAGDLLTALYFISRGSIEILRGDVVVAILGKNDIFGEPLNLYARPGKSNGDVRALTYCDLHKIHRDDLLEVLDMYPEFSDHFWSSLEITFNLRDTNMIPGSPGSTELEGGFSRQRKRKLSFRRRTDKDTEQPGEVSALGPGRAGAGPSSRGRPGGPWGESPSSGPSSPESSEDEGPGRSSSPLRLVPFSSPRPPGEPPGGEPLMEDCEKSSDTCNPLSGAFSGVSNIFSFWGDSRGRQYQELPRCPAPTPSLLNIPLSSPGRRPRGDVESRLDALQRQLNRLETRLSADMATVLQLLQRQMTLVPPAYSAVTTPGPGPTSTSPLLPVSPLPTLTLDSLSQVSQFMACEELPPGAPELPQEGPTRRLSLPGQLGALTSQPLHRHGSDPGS

Compound | hERG current change (%, negative = inhibition) at 1uM [%]
Cc1ccc(NC(=O)C2CCCN2S(=O)(=O)c2ccc3c(c2)CCC(=O)N3)cc1Cl (stereo not drawn) | -13
Nc1c(C(=O)NCc2ccco2)c2nc3ccccc3nc2n1CCN1CCOCC1 | 7.98
Cc1nc2ccc(C(=O)OCc3ccccc3Br)cc2nc1C | 2.2
COc1ccc(CNC(=O)[C@H](Cc2ccccc2)NC(=O)C2CCN(C(=O)[C@H](C)N)CC2)cc1 | 1.72
CC(=O)c1ccc(C(=O)N(C)C2CCCN(Cc3ccccc3F)C2)s1 (stereo not drawn) | -3.2
Br.CCCCCCCCOC(=O)c1c(CSC(=N)N)n(C)c2cc(Br)c(OC(C)=O)cc12 | 3.23
O=C(COc1ccccc1)Nc1cccc(-c2nnc(-c3ccccc3)o2)c1 | 4.9
CC(=O)c1cccc(NC2c3ccccc3C(=O)N2Cc2ccc3c(c2)OCO3)c1 (stereo not drawn) | 0.132
Cc1cc(CSc2ccccc2)ccc1NC(=O)COc1ccccc1C | 2.24
Cc1c(O)c(S(=O)c2ccccc2)c(=O)n(-c2ccccc2)c1-c1ccccc1 (stereo not drawn) | 4.51
COc1ccc(C(C(=O)NC(C)(C)C)N(C(=O)CCC(=O)Nc2cc(C)on2)c2ccccc2F)cc1 (stereo not drawn) | 6.78
C#CCOc1cc(C2C3=C(COC3=O)Nc3cc4c(cc32)OCO4)ccc1OC (stereo not drawn) | 17.7
Cc1c(NC(=O)/C(C#N)=C/c2ccc(-c3cccc(Cl)c3)o2)c(=O)n(-c2ccccc2)n1C | 2.09
OC(CNCC(c1ccc(Cl)cc1Cl)c1c[nH]c2ccccc12)c1ccccc1 (stereo not drawn) | 7.22
COc1cc(SC)ccc1C(=O)N1CCCc2ccccc21 | 14.7
C/C(=N\NC(=O)c1ccccc1)c1c(O)n(Cc2ccccc2)c(=O)[nH]c1=O | 0.925
COc1ccc(Cl)cc1NC(=O)CSc1nnc(CN2CCOCC2)n1-c1ccc(Cl)cc1 | -11.4
O=C(N/N=C\c1ccccn1)C1COc2cc3ccccc3cc2O1 (stereo not drawn) | 9.19
COc1ccccc1C(=O)NCCC(=O)N(C)Cc1ccc(C)o1 | -5.36
N#Cc1cc2ccccc2nc1N | 6.76
Cc1ccc(S(=O)(=O)N2CCN(C(=O)CN3CCOCC3)C2)cc1 | 8.97
CC(=O)c1ccc(NC(=O)CC(NCCC2=CCCCC2)C(=O)O)cc1 (stereo not drawn) | 9.71

Compound | hERG current change (%, negative = inhibition) at 1uM [%]
O=C(c1ccc(Cl)cc1)c1coc2ccc(O)cc12 | -0.871
COc1cccc(/C=C/C(=O)c2ccc(C)c([N+](=O)[O-])c2)c1 | 5
CC(C)N1OC2CC1c1nc3ccccc3n1C2 (stereo not drawn) | 11.7
COC(=O)c1c(-c2ccccc2)csc1NC(=O)c1ccco1 | 5.64
O=C(C1CCCO1)N1CCN(S(=O)(=O)c2ccccc2)CC1 (stereo not drawn) | 14.1
COc1ccc(OC)c(-n2c(O)c(/C=C3\C(C)=Nc4ccccc43)c(=O)[nH]c2=O)c1 | 11.6
COc1ccc(/C=C/C(=O)Nc2ccccc2)cc1OC | -1.17
O=C1CN(C(=O)COc2ccc(F)cc2Cl)c2ccccc2N1 | 9.81
O=C(CNC(=O)c1ccccc1F)NCc1cccnc1 | 18.5
O=C(c1cc2ccccc2c(=O)o1)N1CCCC1 | 3.4
Cc1ccc(C(=O)CSc2nc(N)cc(=O)[nH]2)cc1 | 8
CN(C)CCN(C(=O)c1ccc2ccccc2c1)c1nc2c(F)cccc2s1.Cl | 9.87
O=C(CCCSc1ccccc1)Nc1nc(-c2ccccn2)cs1 | 6.21
CCOC(=O)c1ccccc1OCc1cc(/C=N/n2cncn2)ccc1OC | 6.43
Cc1ccc(NC(=O)C2CCCN2S(=O)(=O)c2cccc3cccnc23)cc1F (stereo not drawn) | -0.404
COc1ccc(N(C(=O)c2ccncc2)S(=O)(=O)c2ccccc2)cc1 | 6.01
CN(C)c1nc(N)nc(CSc2nc3c(c(=O)n(C)c(=O)n3C)n2Cc2ccccc2F)n1 | 3.73
COC(=O)c1ccc(C(=O)N(Cc2ccccc2)c2ccccc2)cc1 | 8.82
Cc1onc(-c2ccccc2Cl)c1C(=O)NCc1ccc2c(c1)cc(C)n2C | 14.3
COc1cc2[nH]c3c(=O)n(CCN(C(C)C)C(C)C)cnc3c2cc1OC | -0.854
CCN(CC)c1ccc(NC(=O)c2cc3c(OC)cccc3[nH]2)cc1 | 5.86
COc1cc2c(cc1OC)CN(CC(=O)Nc1ccccc1C(=O)NCc1ccccc1)CC2 | 6.38

Compound | hERG current change (%, negative = inhibition) at 1uM [%]
COc1ccc(OC)c(CNC(=O)COc2cc(=O)n(C)c3ccccc23)c1 | 9.56
CCCCCN1C(=O)Cn2c(nc3ccccc3c2=O)C1C (stereo not drawn) | 7.16
CC(CN1CCN(C)CC1)OC(=O)c1cccc(F)c1.Cl (stereo not drawn) | 10.8
CCC(NC(=O)NNC(=O)c1ccncc1)(C(F)(F)F)C(F)(F)F | 7.06
O=C(c1cn(-c2ccccc2)nc1-c1cccnc1)N1CCN(S(=O)(=O)c2cccc(F)c2)CC1 | -3.38
O=C1c2ccccc2S(=O)(=O)c2cc(N3CCN(c4ccccc4)CC3)ccc21 | 13.3
O=C(COC(=O)C1CCC(=O)N1)Nc1ccc(Cl)cc1Cl (stereo not drawn) | 6.46
CNC(=S)N1CCN(c2nc(-c3ccc(F)cc3)cs2)CC1 | 11.3
Cc1cc(C(=O)CN2C(=O)NC(c3ccccc3)(c3ccccc3)C2=O)c(C)n1Cc1ccco1 | 4.77
O=[N+]([O-])c1ccc(/C=N/n2c(COc3ccccc3)n[nH]c2=S)cc1 | 0.0291
O=C(CN(Cc1ccc(F)cc1)C(=O)CCC(=O)Nc1ccccn1)NCCc1ccccc1 | -9.81
CCOc1ccc(C(=O)N2CCC3(CC2)NCCc2[nH]cnc23)cc1 | -1.01
CC(C)(C)C(=O)NC1(C(F)(F)F)NC(=O)N(Cc2ccccc2)C1=O (stereo not drawn) | 12
CCCN(CC(=O)Nc1ccc(F)c(F)c1F)CC(=O)Nc1c(Cl)cccc1Cl | -4.35
Cc1nnc(SC/C=C/c2ccccc2)n(N)c1=O | 7.98
C/C(=N\NC(=O)c1ccccc1O)c1c(O)n(C2CCCCC2)c(=O)[nH]c1=O | 14.3
CCN1C(=O)c2ccccc2Sc2ccc(C(=O)NCCC(C)C)cc21 | 8.37
Cc1ccc(C(=O)N2CCC(n3nccc3NC(=O)C3CCOC3)CC2)cc1 (stereo not drawn) | 9.71
CCCCC(=O)O | 6.91
Br.CCCCn1c(=N)n(CC(=O)O)c2ccccc21 | 15.9
O=C(NC(=S)Nc1cccc2c(O)cccc12)c1ccccc1[N+](=O)[O-] | 10.7
CCN1CCC[C@H]1CNC(=O)c1cc(S(N)(=O)=O)ccc1OC | -2.47

Compound | hERG current change (%, negative = inhibition) at 1uM [%]
Cc1cccc2[nH]c(CCNC(=O)C3CCC(=O)N(CCc4cccc(F)c4)C3)nc12 (stereo not drawn) | 14
Cc1ccc(S(=O)(=O)Nc2c(C(=O)O)[nH]c3ccccc23)cc1C | 7.92
COC(=O)c1cc(NC(=O)Cc2ccccc2[N+](=O)[O-])ccc1Cl | 0.557
CNS(=O)(=O)c1cccc(C(=O)OCCCOC(=O)c2cccc(S(=O)(=O)NC)c2)c1 | 17.3
O=C(NCc1cn2ccccc2n1)c1ccccc1 | 14.4
CCc1ccc(OC(=O)CN2C(=O)c3ccccc3C2=O)cc1 | 14.8
CC(=O)NNC(=O)c1cc2c3ccccc3n(C)c2s1 | 17.3
Cc1ccc2[nH]c(C)c(CC(=O)NCc3ccccc3)c2c1 | 11.3
CCOc1ccc2nc(NC(=O)CSc3nc4ccccc4c(=O)n3Cc3ccco3)sc2c1 | -7.95
Cc1ccc(OCc2cccc(S(=O)(=O)N(C)C)c2)c([N+](=O)[O-])n1 | 14
CCOC(=O)N1CCN(S(=O)(=O)c2c[nH]c(C(=O)OC)c2)CC1 | 17.1
CC(C)(C)c1ccc(C(=O)NCCC(=O)N2CCN(c3ncccn3)CC2)cc1 | 0.386
CC(C)C1N(C(=O)N(C)C)CCN1S(=O)(=O)c1ccccc1 (stereo not drawn) | 16.3
CC(C)(C)N1OC2CC1c1nc3ccccc3n1C2 (stereo not drawn) | 17.7
O=S(=O)(NC1=NCCCCC1)c1ccc2sc(NS(=O)(=O)c3ccc4ccccc4c3)nc2c1 | 11
Cc1cc(NCCN(C)C)n2nc(-c3cccs3)cc2n1 | -12.5
Cc1nc2ccccc2n1/N=C/c1ccc([N+](=O)[O-])o1 | -29
COc1ccccc1OCCCOc1cccc(/C=C2\SC(=O)NC2=O)c1 | 14.7
COc1cccc(CNC(=O)CCC2CCCN(C(=O)c3cc(C)on3)C2)c1 (stereo not drawn) | 1.15
C=CCOc1c(Br)cc(CNn2nnnc2N)cc1OCC | 10.4
Cc1ccc2nc(SCC(=O)NCCCN3CCCC3=O)[nH]c2c1 | 3.09
